Laboratory results as given in the supplement of paper PMC10724272.
MIC of invasive clinical C. tropicalis isolates, CLSI broth microdilution (fluconazole 0.12-256 mg/L, up to 1,024 for the azole-resistant cluster and its neighbour group; other ranges not stated); higher = less susceptible. Call: susceptible or wild type [S] / resistant or non-wild type [R] by CLSI breakpoints or cut-offs; intermediate and dose-dependent carry no call. '<=' and '>=' at the end values are inferred; the source marks only some of them. Isolates are numbered anew.

Experiments:
Assay in all cases: CLSI broth microdilution.
itraconazole = compound: CCC(C)n1ncn(-c2ccc(N3CCN(c4ccc(OCC5COC(Cn6cncn6)(c6ccc(Cl)cc6Cl)O5)cc4)CC3)cc2)c1=O [itraconazole]
voriconazole = compound: C[C@@H](c1ncncc1F)[C@](O)(Cn1cncn1)c1ccc(F)cc1F [voriconazole]
micafungin = compound: CCCCCOc1ccc(-c2cc(-c3ccc(C(=O)N[C@H]4C[C@@H](O)[C@@H](O)NC(=O)[C@@H]5[C@@H](O)[C@@H](C)CN5C(=O)[C@H]([C@H](O)CC(N)=O)NC(=O)[C@H]([C@H](O)[C@@H](O)c5ccc(O)c(OS(=O)(=O)O)c5)NC(=O)[C@@H]5C[C@@H](O)CN5C(=O)[C@H]([C@@H](C)O)NC4=O)cc3)no2)cc1 [micafungin]
posaconazole = compound: CC[C@@H]([C@H](C)O)n1ncn(-c2ccc(N3CCN(c4ccc(OC[C@@H]5CO[C@@](Cn6cncn6)(c6ccc(F)cc6F)C5)cc4)CC3)cc2)c1=O [posaconazole]
anidulafungin = compound: CCCCCOc1ccc(-c2ccc(-c3ccc(C(=O)N[C@H]4C[C@@H](O)[C@@H](O)NC(=O)[C@@H]5[C@@H](O)[C@@H](C)CN5C(=O)[C@H]([C@@H](C)O)NC(=O)[C@H]([C@H](O)[C@@H](O)c5ccc(O)cc5)NC(=O)[C@@H]5C[C@@H](O)CN5C(=O)[C@H]([C@@H](C)O)NC4=O)cc3)cc2)cc1 [anidulafungin]
caspofungin = compound: CC[C@H](C)C[C@H](C)CCCCCCCCC(=O)N[C@H]1C[C@@H](O)[C@@H](NCCN)NC(=O)[C@@H]2[C@@H](O)CCN2C(=O)[C@H]([C@H](O)CCN)NC(=O)[C@H]([C@H](O)[C@@H](O)c2ccc(O)cc2)NC(=O)[C@@H]2C[C@@H](O)CN2C(=O)[C@H]([C@@H](C)O)NC1=O [caspofungin]
fluconazole = compound: OC(Cn1cncn1)(Cn1cncn1)c1ccc(F)cc1F [fluconazole]
amphotericin B = compound: C[C@@H]1[C@H](O)[C@@H](C)/C=C/C=C/C=C/C=C/C=C/C=C/C=C/[C@H](O[C@@H]2O[C@H](C)[C@@H](O)[C@H](N)[C@@H]2O)C[C@@H]2O[C@](O)(C[C@@H](O)C[C@@H](O)[C@H](O)CC[C@@H](O)C[C@@H](O)CC(=O)O[C@H]1C)C[C@H](O)[C@H]2C(=O)O [amphotericin B]
flucytosine = compound: Nc1[nH]c(=O)ncc1F [flucytosine]

| Test System | MIC (itraconazole) | MIC (voriconazole) | MIC (micafungin) | MIC (posaconazole) | MIC (anidulafungin) | MIC (caspofungin) | MIC (fluconazole) | MIC (amphotericin B) | MIC (flucytosine) |
| --- | --- | --- | --- | --- | --- | --- | --- | --- | --- |
| Candida tropicalis isolate 105 (ERG11 copies: 2, Erg11p: no key change) | 0.25 mg/L [S] | 0.25 mg/L | 0.03 mg/L [S] | 0.25 mg/L [S] | 0.12 mg/L [S] | 0.03 mg/L [S] | 2 mg/L [S] | 1 mg/L [S] | ≤ 0.06 mg/L [S] |
| Candida tropicalis isolate 106 (ERG11 copies: 2, Erg11p: no key change) | 0.12 mg/L [S] | 0.03 mg/L [S] | 0.03 mg/L [S] | 0.06 mg/L [S] | ≤ 0.015 mg/L [S] | 0.06 mg/L [S] | 1 mg/L [S] | 0.5 mg/L [S] | ≤ 0.06 mg/L [S] |
| Candida tropicalis isolate 107 (ERG11 copies: 7, Erg11p: Y132F, S154F (heterozygous)) | 0.25 mg/L [S] | ≥ 8 mg/L [R] | 0.03 mg/L [S] | 0.5 mg/L [R] | 0.03 mg/L [S] | 0.03 mg/L [S] | 512 mg/L [R] | 1 mg/L [S] | ≤ 0.06 mg/L [S] |
| Candida tropicalis isolate 108 (ERG11 copies: 2, Erg11p: Y132F, S154F (heterozygous)) | 0.25 mg/L [S] | 1 mg/L [R] | 0.06 mg/L [S] | 0.25 mg/L [S] | 0.12 mg/L [S] | 0.06 mg/L [S] | 16 mg/L [R] | 0.5 mg/L [S] | ≤ 0.06 mg/L [S] |
| Candida tropicalis isolate 109 (ERG11 copies: 2, Erg11p: no key change) | 0.12 mg/L [S] | 0.06 mg/L [S] | 0.03 mg/L [S] | 0.12 mg/L [S] | 0.03 mg/L [S] | 0.03 mg/L [S] | 1 mg/L [S] | 1 mg/L [S] | ≤ 0.06 mg/L [S] |
| Candida tropicalis isolate 110 (ERG11 copies: 2, Erg11p: no key change) | 0.5 mg/L [S] | 0.25 mg/L | 0.03 mg/L [S] | 0.5 mg/L [R] | 0.03 mg/L [S] | 0.03 mg/L [S] | 2 mg/L [S] | 1 mg/L [S] | ≤ 0.06 mg/L [S] |
| Candida tropicalis isolate 111 (ERG11 copies: 2, Erg11p: no key change) | 0.015 mg/L [S] | ≤ 0.008 mg/L [S] | 0.015 mg/L [S] | 0.015 mg/L [S] | ≤ 0.015 mg/L [S] | 0.03 mg/L [S] | 0.25 mg/L [S] | 0.5 mg/L [S] | ≤ 0.06 mg/L [S] |
| Candida tropicalis isolate 112 (ERG11 copies: 5, Erg11p: Y132F, S154F (heterozygous)) | 0.5 mg/L [S] | ≥ 8 mg/L [R] | 0.03 mg/L [S] | 0.5 mg/L [R] | 0.12 mg/L [S] | 0.12 mg/L [S] | 256 mg/L [R] | 1 mg/L [S] | ≤ 0.06 mg/L [S] |
| Candida tropicalis isolate 113 (ERG11 copies: 2, Erg11p: no key change) | 0.03 mg/L [S] | ≤ 0.008 mg/L [S] | 0.008 mg/L [S] | 0.015 mg/L [S] | 0.12 mg/L [S] | 0.06 mg/L [S] | 0.5 mg/L [S] | 0.5 mg/L [S] | 0.12 mg/L [S] |
| Candida tropicalis isolate 114 (ERG11 copies: 2, Erg11p: no key change) | 0.06 mg/L [S] | 0.03 mg/L [S] | 0.015 mg/L [S] | 0.12 mg/L [S] | ≤ 0.015 mg/L [S] | 0.03 mg/L [S] | 1 mg/L [S] | 1 mg/L [S] | ≤ 0.06 mg/L [S] |
| Candida tropicalis isolate 115 (ERG11 copies: 2, Erg11p: no key change) | 0.12 mg/L [S] | 0.12 mg/L [S] | 0.06 mg/L [S] | 0.25 mg/L [S] | 0.06 mg/L [S] | 0.03 mg/L [S] | 2 mg/L [S] | 0.5 mg/L [S] | ≤ 0.06 mg/L [S] |
| Candida tropicalis isolate 116 (ERG11 copies: 2, Erg11p: no key change) | 0.25 mg/L [S] | 0.12 mg/L [S] | 0.015 mg/L [S] | 0.25 mg/L [S] | ≤ 0.015 mg/L [S] | 0.03 mg/L [S] | 2 mg/L [S] | 1 mg/L [S] | ≤ 0.06 mg/L [S] |
| Candida tropicalis isolate 117 (ERG11 copies: 8, Erg11p: Y132F, S154F, P397S (heterozygous)) | 1 mg/L [R] | ≥ 8 mg/L [R] | 0.03 mg/L [S] | 1 mg/L [R] | 0.03 mg/L [S] | 0.03 mg/L [S] | 512 mg/L [R] | 2 mg/L [S] | ≤ 0.06 mg/L [S] |
| Candida tropicalis isolate 118 (ERG11 copies: 2, Erg11p: no key change) | 0.5 mg/L [S] | 0.5 mg/L | 0.06 mg/L [S] | 0.5 mg/L [R] | 0.12 mg/L [S] | 0.03 mg/L [S] | 2 mg/L [S] | 1 mg/L [S] | 0.12 mg/L [S] |
| Candida tropicalis isolate 119 (ERG11 copies: 2, Erg11p: no key change) | 0.12 mg/L [S] | 0.06 mg/L [S] | 0.06 mg/L [S] | 0.06 mg/L [S] | 0.25 mg/L [S] | 0.03 mg/L [S] | 1 mg/L [S] | 1 mg/L [S] | ≤ 0.06 mg/L [S] |
| Candida tropicalis isolate 120 (ERG11 copies: 2, Erg11p: no key change) | 0.25 mg/L [S] | 0.12 mg/L [S] | 0.03 mg/L [S] | 0.25 mg/L [S] | 0.03 mg/L [S] | 0.03 mg/L [S] | 1 mg/L [S] | 1 mg/L [S] | 0.12 mg/L [S] |
| Candida tropicalis isolate 121 (ERG11 copies: 2, Erg11p: no key change) | 0.12 mg/L [S] | 0.06 mg/L [S] | 0.015 mg/L [S] | 0.25 mg/L [S] | 0.12 mg/L [S] | 0.06 mg/L [S] | 1 mg/L [S] | 1 mg/L [S] | ≤ 0.06 mg/L [S] |
| Candida tropicalis isolate 122 (ERG11 copies: 2, Erg11p: no key change) | 0.5 mg/L [S] | 0.25 mg/L | 0.03 mg/L [S] | 0.5 mg/L [R] | 0.03 mg/L [S] | 0.015 mg/L [S] | 2 mg/L [S] | 1 mg/L [S] | 0.12 mg/L [S] |
